Laboratory results taken from article PMC4336329 (PLoS ONE, 2015).
Among all 310,000 compounds or so, about 14,000 (4.5%) showed an effect of 50% or more. The effect is printed as a negative number. This is one part of the list.

Target: human ether-à-go-go-related gene (hERG) potassium channel (human, UniProt Q12809)
Experiment: primary screen, population patch clamp on CHO cells stably expressing hERG
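Also: peak tail current of the secondary pulse compared with the same well before compound.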

Sequence of human ether-à-go-go-related gene (hERG) potassium channel (Q12809 whole entry, looked up): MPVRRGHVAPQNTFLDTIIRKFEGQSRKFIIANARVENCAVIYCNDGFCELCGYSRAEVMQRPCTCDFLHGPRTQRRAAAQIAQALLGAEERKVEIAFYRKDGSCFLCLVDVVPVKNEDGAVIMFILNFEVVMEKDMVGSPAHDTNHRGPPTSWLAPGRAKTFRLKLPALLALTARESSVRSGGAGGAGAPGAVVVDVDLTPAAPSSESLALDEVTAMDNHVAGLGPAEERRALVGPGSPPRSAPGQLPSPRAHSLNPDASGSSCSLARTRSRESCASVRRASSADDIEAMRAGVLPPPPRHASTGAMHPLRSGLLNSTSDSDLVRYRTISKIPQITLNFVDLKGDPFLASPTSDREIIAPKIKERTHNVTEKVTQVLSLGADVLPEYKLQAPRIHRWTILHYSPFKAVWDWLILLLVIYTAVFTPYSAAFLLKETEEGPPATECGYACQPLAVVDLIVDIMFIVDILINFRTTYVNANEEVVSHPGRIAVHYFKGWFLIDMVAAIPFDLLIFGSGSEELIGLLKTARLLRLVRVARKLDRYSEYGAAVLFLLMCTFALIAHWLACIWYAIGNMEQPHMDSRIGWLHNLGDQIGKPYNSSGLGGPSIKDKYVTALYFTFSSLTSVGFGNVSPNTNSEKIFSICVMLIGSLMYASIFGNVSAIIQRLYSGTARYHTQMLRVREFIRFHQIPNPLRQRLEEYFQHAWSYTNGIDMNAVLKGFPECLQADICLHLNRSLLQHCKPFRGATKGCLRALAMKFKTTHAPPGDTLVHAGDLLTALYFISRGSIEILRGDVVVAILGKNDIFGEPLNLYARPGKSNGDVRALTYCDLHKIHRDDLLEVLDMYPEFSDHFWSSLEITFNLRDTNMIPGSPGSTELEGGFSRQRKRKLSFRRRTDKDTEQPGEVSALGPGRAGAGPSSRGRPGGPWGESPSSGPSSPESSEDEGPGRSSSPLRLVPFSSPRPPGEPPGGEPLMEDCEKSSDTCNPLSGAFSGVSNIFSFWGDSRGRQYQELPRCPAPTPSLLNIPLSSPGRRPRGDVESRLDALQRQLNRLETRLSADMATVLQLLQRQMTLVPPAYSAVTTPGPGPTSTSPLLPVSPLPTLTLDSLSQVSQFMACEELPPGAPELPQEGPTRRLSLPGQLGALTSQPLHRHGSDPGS

SMILES	hERG current change (%, negative = inhibition) at 10uM [%]
O=C(Nc1ccc(F)cc1)NC1CCN(Cc2ccccc2)CC1	-36.7
COc1ccc([N+](=O)[O-])cc1CSc1nnc(NC(C)=O)s1	0.29
COc1cccc(CNc2nc(SC)ncc2CO)c1	14.5
CCOc1ccc(N2C(=O)CS/C2=N/NC(=O)COc2ccc3ccccc3c2)cc1	-6.99
Cc1ccccc1OCC(=O)Nc1nc2ccccc2[nH]1	13.1
CN(Cc1ccc(F)cc1)Cc1nc(-c2cnccn2)no1	13.7
COc1cc(CC2COC(c3ccc(O)c(OC)c3)C2COC(C)=O)ccc1O (centres unmarked)	-6.69
Cc1ccc(OCC(=O)Oc2ccccc2[N+](=O)[O-])cc1	4.98
Cc1nnc2ccc(N3CCOCC3)nn12	2.88
Fc1ccc(-n2c(-c3ccc4ccccc4n3)n[nH]c2=S)cc1	30
Cc1cccc(C)c1NC(=O)Cn1c(CN2CCCCC2)nc2ccccc2c1=O	12.1
CCOc1cc(C(=O)Nc2ccccc2N2CCOCC2)ccc1OCC(=O)N1CCCCC1	3.09
CCN(CC)C(=O)CSc1ncccc1-c1nc2ccccc2[nH]1	-1.29
CN1CCN(C(CNC(=O)C(=O)Nc2ccc3c(c2)OCCO3)c2ccc(F)cc2)CC1 (centres unmarked)	-46.2
Cn1c(NNC(=O)CCC2CCCCC2)cc(=O)n(C)c1=O	13.1
CN(Cc1ccccc1)C(=O)c1[nH]cnc1C(=O)NCC(=O)OCc1ccccc1	-17.4
O=C(OCC(=O)N1CCc2ccccc21)c1cccnc1	-0.586
CCC(=O)NC(=S)Nc1c(C)cc(Br)cc1C	11.3
Cc1ccccc1N1CCN(CC(=O)NCc2ccc(Cl)cc2)CC1	-27
Cc1ccc(-c2nc(S(=O)(=O)c3ccc(C)cc3)c(SCC(N)=O)o2)cc1	11.8
N/C(=N\O)c1cccc(CS(=O)(=O)c2ccccn2)c1	23.8
CC(=O)Nc1ccc(Nc2cc(-c3ccccc3)nc3ncnn23)cc1	17.1
COc1ccc(OC)c(S(=O)(=O)N2CCNCC2)c1	-3.13

SMILES	hERG current change (%, negative = inhibition) at 10uM [%]
CC1CN(CC(=O)NCc2ccc(Cl)cc2)CC(C)O1 (centres unmarked)	3.5
COCCNC(=O)c1ccc(N(C)S(=O)(=O)c2ccc(OC)c(OC)c2)cc1	1.7
O=c1oc2cc(OCc3ccc([N+](=O)[O-])cc3)ccc2c2c1CCCC2	0.447
CCCCN1CC(=O)N2Cc3[nH]c4ccccc4c3C[C@H]2C1=O	13.1
COc1ccccc1CNCc1cc(=O)oc2c(C)c(C)ccc12	-14.4
O=S(=O)(c1ccc(-c2ccon2)s1)N1CCN(c2ccccn2)CC1	7.27
Cc1csc(=O)n1CCC(=O)OCC(=O)Nc1ncc(Cl)cc1Cl	-1.4
CCC(=O)N1c2ccc(C)cc2C2=NNC(=S)NC21O (centres unmarked)	5.02
COCn1c(COc2ccc3ccccc3c2)nc2ccccc21	-6
CCC(=O)Nc1ccc(Cl)c(NC(=O)c2cccnc2)c1	-3.92
O=C(c1ccc(COc2ccc3c(c2)CCC3)o1)N1CCN(c2ccccc2)CC1	15.5
O=C(CNC(=S)N(CCCN1CCOCC1)Cc1cccs1)NC1CCCCC1	-31.2
C=CCC(O)(CC=C)C(C)N.Cl (centres unmarked)	47.6
COc1ccccc1N1CCN(C(=O)C(=O)c2cn(CC(=O)N3CCOCC3)c3ccccc23)CC1	11.4
O=C(CNCc1ccccc1Cl)NCc1ccco1.O=C(O)C(=O)O	5.37
O=C(O)CSc1nnc(Cc2cccc3ccccc23)n1-c1cc(C(F)(F)F)cc(C(F)(F)F)c1	12.5
CCOC(=O)N1CCC(N2Cc3cccc(C(=O)N4CCN(c5cccc(Cl)c5)CC4)c3C2=O)CC1	-63.7
O=C1N(Cc2ccc3c(c2)OCO3)c2ccccc2C1(O)c1c[nH]c2ccccc12 (centres unmarked)	11.1
Cc1onc(-c2ccccc2Cl)c1C(=O)NCc1ccccc1F	-9.14
COCCN(C(=O)COC(=O)/C=C/c1ccc(C)o1)c1c(N)n(Cc2ccccc2)c(=O)[nH]c1=O	20.9
CC(=O)C1=C(O)C(=O)N(c2nccs2)C1c1ccccc1F (centres unmarked)	16.4
Cc1noc(C)c1CSc1nnc2ccc3ccccc3n12	-25.1
O=c1cc(CN2CCOCC2)nc(C2CC2)[nH]1	11.9

SMILES	hERG current change (%, negative = inhibition) at 10uM [%]
CC1(C)c2[nH]c3ccccc3c2C[C@H]2C(=O)N(Cc3ccccc3)C(=O)N21	11.2
O=C(O)c1cccc(N2C(=O)CSC2c2c(F)cccc2Cl)c1 (centres unmarked)	3.04
Nc1cc(C(=O)O)c(Oc2ccc(Cl)cc2Cl)cc1C(=O)O	7.83
COc1ccc(CN2CCN(C(=O)CC(C)C)CC2)c(OC)c1OC	16.6
Cc1ccc(S(=O)(=O)CC(=O)N2CCN(c3ccc(F)cc3)CC2)cc1	-51.5
COC(=O)c1ccc(C(=O)NC2CCCc3c2cnn3-c2ccc(C)c(C)c2)cc1 (centres unmarked)	6.54
CSc1nc2sc3c(c2c(=O)n1C)CCC(C)C3 (centres unmarked)	8.3
O=C(COC(=O)CSc1ccc(Cl)cc1)Nc1ccccc1	-6.77
COc1ccc(NC(=O)COC(=O)c2ccc(OCc3ccc(Cl)cc3Cl)c(OC)c2)c(OC)c1	3.38
CN(C)S(=O)(=O)c1ccc(C(=O)OCC(=O)c2csc(N3CCCCC3)n2)cc1	2.26
COc1ccccc1CCc1nnc(CCC(=O)N(C)Cc2cccc3cnccc23)o1	-35.3
Cc1cc(C)cc(NC(=O)C2CCN(S(=O)(=O)c3c(C)n[nH]c3C)CC2)c1	-21.1
COc1ccccc1CNc1ccc([N+](=O)[O-])cc1C	4.41
CS(=O)(=O)N1CCN(c2ccccc2NC(=S)NC(=O)c2ccccc2[N+](=O)[O-])CC1	6.06
CN(C(=O)CCNC(=O)N1CC(=O)Nc2ccccc21)C1CCCCC1	20.1
Cc1ccccc1C(=O)c1ccc2c(c1)n(C)c(=O)n2C	2.11
COc1ccc(C2CC(c3ccccc3)=NN2C(=O)COC(=O)c2ccc(Cl)nc2)cc1 (centres unmarked)	13.8
CCOCC(=O)Nc1c(C(=O)Nc2ccccc2OC)oc2ccccc12	1
CCC(C)[C@H](NC(=O)N1CC(=O)Nc2ccccc21)C(=O)Nc1ccccc1C (some centres unmarked)	8.8
COc1cc(/C=N/Nc2nc(C)cc(=O)[nH]2)ccc1O	14.9
O=C(Nc1cccc([N+](=O)[O-])c1)N1CCCCCC1	15.7
O=c1c2ccccc2nnn1CSc1nnc(Nc2ccccc2)s1	-5.09
Cc1c(NC(=O)c2ccc(-c3ccccc3)cc2)cccc1C(=O)O	1.12

SMILES	hERG current change (%, negative = inhibition) at 10uM [%]
O=C(COc1ccccc1Cl)N(Cc1cccs1)C1CCS(=O)(=O)C1 (centres unmarked)	-10.1
O=C(c1ccccc1)c1ccccc1N1C(=O)C=CC1=O	4.1
CN(CCN1CCOCC1)C(=O)CC1C(=O)NCCN1Cc1ccccc1F (centres unmarked)	12
O=C1c2cccnc2C(=O)N1Cc1ccc(S(=O)(=O)N2CCOc3ccccc32)cc1	14.5
C/C(=N/NC(=O)c1cccnc1)C1=C(O)CC(C)(C)CC1=O	13.5
CC(OC(=O)Cc1ccc(F)cc1)C(=O)NCc1ccc2c(c1)OCO2 (centres unmarked)	-27.7
CC(=O)c1ccc(NC(=S)NCCCn2ccnc2)cc1	10.2
Cc1cccc(C(=O)NCC(=O)NC(C)CCc2ccccc2)c1 (centres unmarked)	-0.165
CC1C(=O)N2CCCc3cc(NC(=O)C4CCCCC4)cc1c32 (centres unmarked)	4.17
COc1ccc(-c2noc(CCCC(=O)NC3CCCCC3)n2)cc1	-1.35
O=C(c1cc(COc2ccccc2)on1)N1CCCC(CN2CCOCC2)C1 (centres unmarked)	-0.796
COc1ccc(-c2nnc(CSc3nnc(-c4ccncc4)n3C3CCCCC3)o2)cc1OC	-28.7
O=C(c1cnn2c(C(F)F)cc(-c3ccccc3)nc12)N1CCN2CCCC2C1 (centres unmarked)	-30.4
Cc1ccccc1C1(CCN2CCCCC2)CCOC(C)(C)C1.Cl (centres unmarked)	-7.96
COc1cc(/C=C/C(=O)OC2CC3CCC2(C)C3(C)C)ccc1O (centres unmarked)	7.13
COC(=O)CSc1nnc(-c2ccc(S(=O)(=O)N3CCCCC3)cc2)o1	7.69
CCOc1ccccc1Nc1ccc(C(=O)O)cc1NC(C)=O	27.2
Cc1ccc(-c2n[nH]c3c2C(c2cccc(O)c2)N(c2ccc(C(=O)O)cc2)C3=O)cc1 (centres unmarked)	4.49
Cc1cc2ncn(C3CC(=O)N(Cc4ccc(N5CCCC5=O)cc4)C3=O)c2cc1C (centres unmarked)	-32.5
Cc1cc(C)nc(SCC(N)=O)n1	10.3
